Laboratory results from US20260297081A1, “COMPOUNDS AND METHODS OF TREATING CANCERS” (Cullgen Inc., priority 2023, published 2026).
At least one read-out could not be matched to a standard name with certainty.

What follows are compounds tested on cyclin D1 (assay: HiBiT detection of HiBiT-tagged cyclin D1 protein level in MCF7 cells, 16 hours (Table 8)). Details: 10 nM, MCF7 cells stably expressing HiBiT tagged target proteins.
Type: cell-based

| Compound | % Cyclin D1 Relative Level (10 nM) |
| --- | --- |
| CC(=O)c1c(C)c2cnc(Nc3ccc(N4CCN(CC(=O)NC5CC6(C5)CC(Nc5nc(NC(C)C)ccc5C(=O)Nc5cc(C)n(C(F)(F)F)n5)C6)CC4)cn3)nc2n(C2CCCC2)c1=O (centres unmarked) [CPD-514, 2-((6-(2-(4-(6-((6-acetyl-8-cyclopentyl-5-methyl-7-oxo-7,8-dihydropyrido[2,3-d]pyrimidin-2-yl)amino)pyridin-3-yl)piperazin-1-yl)acetamido)spiro[3.3]heptan-2-yl)amino)-6-(isopropylamino)-N-(5-methyl-1-(trifluoromethyl)-1H-pyrazol-3-yl)nicotinamide] | B (55%< Relative protein level ≤85%) |
| CC(=O)c1c(C)c2cnc(Nc3ccc(CN4CCN(CC(=O)N5CC6(CCC(Nc7nc(NC(C)C)ccc7C(=O)Nc7ccc(N(C)C)nn7)C6)C5)CC4)cn3)nc2n(C2CCCC2)c1=O (centres unmarked) [CPD-515, 2-((2-(2-(4-((6-((6-acetyl-8-cyclopentyl-5-methyl-7-oxo-7,8-dihydropyrido[2,3-d]pyrimidin-2-yl)amino)pyridin-3-yl)methyl)piperazin-1-yl)acetyl)-2-azaspiro[3.4]octan-6-yl)amino)-N-(6-(dimethylamino)pyridazin-3-yl)-6-(isopropylamino)nicotinamide] | B (55%< Relative protein level ≤85%) |
| CC(=O)c1c(C)c2cnc(Nc3ccc(N4CCN(C5CCN(C(=O)C6(C)CCC(Nc7nc(NC(C)C)ccc7C(=O)Nc7ccc(N(C)C)nn7)CC6)C5)CC4)cn3)nc2n(C2CCCC2)c1=O (centres unmarked) [CPD-516, 2-((4-(3-(4-(6-((6-acetyl-8-cyclopentyl-5-methyl-7-oxo-7,8-dihydropyrido[2,3-d]pyrimidin-2-yl)amino)pyridin-3-yl)piperazin-1-yl)pyrrolidine-1-carbonyl)-4-methylcyclohexyl)amino)-N-(6-(dimethylamino)pyridazin-3-yl)-6-(isopropylamino)nicotinamide] | C (Relative protein level >85%) |
| CC(=O)c1c(C)c2cnc(Nc3ccc(N4CCC(N(C)C(=O)CN5CC(Nc6nc(NC(C)C)ccc6C(=O)Nc6ccc(N(C)C)nn6)C5)CC4)cn3)nc2n(C2CCCC2)c1=O [CPD-517, 2-((1-(2-((1-(6-((6-acetyl-8-cyclopentyl-5-methyl-7-oxo-7,8-dihydropyrido[2,3-d]pyrimidin-2-yl)amino)pyridin-3-yl)piperidin-4-yl)(methyl)amino)-2-oxoethyl)azetidin-3-yl)amino)-N-(6-(dimethylamino)pyridazin-3-yl)-6-(isopropylamino)nicotinamide] | C (Relative protein level >85%) |
| CC(=O)c1c(C)c2cnc(Nc3ccc(N4CCN(C5CCN(C(=O)CN6CC7(CC(Nc8nc(NC(C)C)ccc8C(=O)Nc8ccc(N(C)C)nn8)C7)C6)C5)CC4)cn3)nc2n(C2CCCC2)c1=O (centres unmarked) [CPD-518, 2-((2-(2-(3-(4-(6-((6-acetyl-8-cyclopentyl-5-methyl-7-oxo-7,8-dihydropyrido[2,3-d]pyrimidin-2-yl)amino)pyridin-3-yl)piperazin-1-yl)pyrrolidin-1-yl)-2-oxoethyl)-2-azaspiro[3.3]heptan-6-yl)amino)-N-(6-(dimethylamino)pyridazin-3-yl)-6-(isopropylamino)nicotinamide] | B (55%< Relative protein level ≤85%) |
| [2H]C([2H])([2H])Nc1ccc(C(=O)Nc2ccc(N(C)C)nn2)c(NC2CC3(C2)CN(C(=O)CN2CCC4(CCN(Cc5ccc(Nc6ncc7c(C)c(C(C)=O)c(=O)n(C8CCCC8)c7n6)nc5)C4)C2)C3)n1 (centres unmarked) [CPD-519, 2-((2-(2-(7-((6-((6-acetyl-8-cyclopentyl-5-methyl-7-oxo-7,8-dihydropyrido[2,3-d]pyrimidin-2-yl)amino)pyridin-3-yl)methyl)-2,7-diazaspiro[4.4]nonan-2-yl)acetyl)-2-azaspiro[3.3]heptan-6-yl)amino)-N-(6-(dimethylamino)pyridazin-3-yl)-6-((methyl-d3)amino)nicotinamide] | B (55%< Relative protein level ≤85%) |
| CC(=O)c1c(C)c2cnc(Nc3ccc(N4CCN(C5CCN(C(=O)[C@H]6CC[C@H](Nc7nc(NC(C)C)ccc7C(=O)Nc7cc8n(n7)CCC8)CC6)C5)CC4)cn3)nc2n(C2CCCC2)c1=O (stereo partly drawn) [CPD-520, 2-((trans-4-(3-(4-(6-((6-acetyl-8-cyclopentyl-5-methyl-7-oxo-7,8-dihydropyrido[2,3-d]pyrimidin-2-yl)amino)pyridin-3-yl)piperazin-1-yl)pyrrolidine-1-carbonyl)cyclohexyl)amino)-N-(5,6-dihydro-4H-pyrrolo[1,2-b]pyrazol-2-yl)-6-(isopropylamino)nicotinamide] | B (55%< Relative protein level ≤85%) |
| [2H]C([2H])([2H])Nc1ccc(C(=O)Nc2cc3n(n2)CCC3)c(N[C@H]2CC[C@H](C(=O)N3CCC(N4CCN(c5ccc(Nc6ncc7c(C)c(C(C)=O)c(=O)n(C8CCCC8)c7n6)nc5)CC4)C3)CC2)n1 (stereo partly drawn) [CPD-521, 2-((trans-4-(3-(4-(6-((6-acetyl-8-cyclopentyl-5-methyl-7-oxo-7,8-dihydropyrido[2,3-d]pyrimidin-2-yl)amino)pyridin-3-yl)piperazin-1-yl)pyrrolidine-1-carbonyl)cyclohexyl)amino)-N-(5,6-dihydro-4H-pyrrolo[1,2-b]pyrazol-2-yl)-6-((methyl-d3)amino)nicotinamide] | B (55%< Relative protein level ≤85%) |
| COc1cccc(NC(=O)c2ccc(NC(C)C)nc2N[C@H]2CC[C@H](C(=O)N3CCC(N4CCN(c5ccc(Nc6ncc7c(C)c(C(C)=O)c(=O)n(C8CCCC8)c7n6)nc5)CC4)C3)CC2)n1 (stereo partly drawn) [CPD-522, 2-((trans-4-(3-(4-(6-((6-acetyl-8-cyclopentyl-5-methyl-7-oxo-7,8-dihydropyrido[2,3-d]pyrimidin-2-yl)amino)pyridin-3-yl)piperazin-1-yl)pyrrolidine-1-carbonyl)cyclohexyl)amino)-6-(isopropylamino)-N-(6-methoxypyridin-2-yl)nicotinamide] | B (55%< Relative protein level ≤85%) |
| [2H]C([2H])([2H])Nc1ccc(C(=O)Nc2cccc(OC)n2)c(N[C@H]2CC[C@H](C(=O)N3CCC(N4CCN(c5ccc(Nc6ncc7c(C)c(C(C)=O)c(=O)n(C8CCCC8)c7n6)nc5)CC4)C3)CC2)n1 (stereo partly drawn) [CPD-523, 2-((trans-4-(3-(4-(6-((6-acetyl-8-cyclopentyl-5-methyl-7-oxo-7,8-dihydropyrido[2,3-d]pyrimidin-2-yl)amino)pyridin-3-yl)piperazin-1-yl)pyrrolidine-1-carbonyl)cyclohexyl)amino)-N-(6-methoxypyridin-2-yl)-6-((methyl-d3)amino)nicotinamide] | C (Relative protein level >85%) |
| [2H]C([2H])([2H])Nc1ccc(C(=O)Nc2cc3n(n2)CCC3)c(NC2CC3(C2)CN(C(=O)CC(N2CCN(c4ccc(Nc5ncc6c(C)c(C(C)=O)c(=O)n(C7CCCC7)c6n5)nc4)CC2)C(F)(F)F)C3)n1 (centres unmarked) [CPD-524, 2-((2-(3-(4-(6-((6-acetyl-8-cyclopentyl-5-methyl-7-oxo-7,8-dihydropyrido[2,3-d]pyrimidin-2-yl)amino)pyridin-3-yl)piperazin-1-yl)-4,4,4-trifluorobutanoyl)-2-azaspiro[3.3]heptan-6-yl)amino)-N-(5,6-dihydro-4H-pyrrolo[1,2-b]pyrazol-2-yl)-6-((methyl-d3)amino)nicotinamide] | B (55%< Relative protein level ≤85%) |
